Reference: PubChem BioAssay AID488969 (Vanderbilt High Throughput Screening Facility, 2010)
Over roughly 110,000 compounds, “z-score” has its median near -0.1; the highest 2% begin near 2. The list shows a part of the results.

Target: Metabotropic glutamate receptor 8 (Rattus norvegicus) (UniProt P70579)
Test: mGluR8 Gi/Go-coupled signaling modulation – cell-based, rat, thallium flux, HTS, primary screen (AID 488969)
Conditions: HEK293 rat mGluR8, GIRK (G protein-gated inwardly rectifying potassium channel) thallium flux, FluoZin2; at 10 µM; stronger effect = higher value; submaximal glutamate (EC20) added with thallium

Chain of UniProt P70579 (P70579 whole entry, looked up): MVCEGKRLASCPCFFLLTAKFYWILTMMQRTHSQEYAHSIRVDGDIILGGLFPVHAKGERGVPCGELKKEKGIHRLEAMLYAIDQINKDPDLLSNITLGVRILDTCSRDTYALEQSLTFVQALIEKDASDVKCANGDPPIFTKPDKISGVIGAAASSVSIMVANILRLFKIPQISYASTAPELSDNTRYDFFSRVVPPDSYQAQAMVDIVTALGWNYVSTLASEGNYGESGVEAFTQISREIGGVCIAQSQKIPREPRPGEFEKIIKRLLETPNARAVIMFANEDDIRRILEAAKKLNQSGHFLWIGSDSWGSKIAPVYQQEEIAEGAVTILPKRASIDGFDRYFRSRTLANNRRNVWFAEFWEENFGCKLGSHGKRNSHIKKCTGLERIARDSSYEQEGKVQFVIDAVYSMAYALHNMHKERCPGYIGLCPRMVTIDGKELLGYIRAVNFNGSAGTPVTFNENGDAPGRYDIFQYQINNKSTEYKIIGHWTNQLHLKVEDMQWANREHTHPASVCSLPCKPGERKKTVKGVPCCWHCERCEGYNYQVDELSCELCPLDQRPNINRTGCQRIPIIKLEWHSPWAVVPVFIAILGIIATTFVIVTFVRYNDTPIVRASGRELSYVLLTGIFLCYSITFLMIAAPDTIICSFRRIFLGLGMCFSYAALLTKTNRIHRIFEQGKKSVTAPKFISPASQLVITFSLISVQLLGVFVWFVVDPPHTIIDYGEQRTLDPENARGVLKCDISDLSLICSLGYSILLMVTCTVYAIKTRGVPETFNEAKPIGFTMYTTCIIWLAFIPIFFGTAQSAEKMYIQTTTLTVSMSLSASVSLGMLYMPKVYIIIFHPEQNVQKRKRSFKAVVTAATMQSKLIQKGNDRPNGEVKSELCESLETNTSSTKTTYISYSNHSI

SMILES | z-score
CC(C)c1ccc(O)c(NC(=O)c2cccnc2)c1 | -1.43
CCOCCCNCc1cc(Br)ccc1OCc1ccccc1 | 0.116
COc1ccc2nc(NC(=O)CSc3nnnn3C3CCCCC3)sc2c1 | -0.0705
CCOC(=O)/C(=C\c1ccc(Cl)cc1)c1nc2sc(C)c(C)c2c(=O)[nH]1 | -0.0812
Cc1nc2c(-c3ccc(F)cc3)c(C)nn2c(C)c1CCC(=O)N1CCN(c2ccc(F)cc2)CC1 | 0.733
Cc1ccc(-c2nnn(CCC(=O)NC(C)(C)C)n2)cc1 | -0.0528
CCOc1ccccc1Nc1nnc(SCC(=O)NC(=O)c2cccn2C)s1 | -0.284
COc1ccc(CCNC(=O)c2oc3ccc(S(=O)(=O)N4CCOCC4)cc3c2C)cc1OC | -0.221
CCOC(=O)Nc1cc(=O)c2ccccc2o1 | 0.0608
NC(=O)c1cc2cc(Br)ccc2oc1=NCc1ccccc1 | 0.462
COc1ccc(O)c(/C=N/Nc2nc(Nc3ccccc3)nc(-n3nc(C)cc3C)n2)c1 | -0.106
CCOc1ccc(C)cc1S(=O)(=O)Nc1cccnc1 | -0.228
C[C@@]12CC(=O)NC1N(C(=O)c1ccccc1)C(c1ccccc1OC(=O)c1ccccc1)C2 (some centres undefined) | -0.261
O=C(NC(NC(=S)Nc1ccc(Cl)cc1)C(Cl)(Cl)Cl)c1ccco1 (centres undefined) | 0.844
COc1ccc(N2CCN(CC(=O)Nc3ccc(-n4cnnn4)cc3)CC2)cc1 | 1.05
Cc1ccc(CSc2nc3c(c(SCC(=O)O)n2)CCCC3)cc1 | -0.276
Cc1nn(Cc2cccc(C(=O)Nc3ccn(Cc4ccccc4)n3)c2)c(C)c1[N+](=O)[O-] | -0.197
CCOC(=O)C1CCCN(Cc2nc(N)nc(Nc3ccc(C)cc3)n2)C1 (centres undefined) | -1.02
COC(=O)C(CC(C)C)NC(=O)c1ccc([N+](=O)[O-])cc1 (centres undefined) | 2.03
FC(F)(F)c1ccccc1NC(=S)N1CCN(c2ncccn2)CC1 | -0.0651
COC(=O)c1ccc(N2Cc3ccccc3/C2=N\C(=O)Nc2ccccc2)cc1 | 0.479
Cc1c(NC(=O)CCSc2ccc(Cl)cc2)c(=O)n(-c2ccccc2)n1C | 0.0518

SMILES | z-score
C/C(=N\NC(=O)C1CC1c1ccccc1)c1cccs1 (centres undefined) | -0.366
O=C(O)C1C2CCC(C2)C1C(=O)NCc1ccco1 (centres undefined) | -0.268
CSc1nsc(SCc2cnc(C)nc2N)n1 | -0.0122
COc1cc(NC(=O)c2cc3ccccc3o2)c(OC)cc1Br | -0.191
O=C(c1ccc(CS(=O)(=O)c2ccc(Br)cc2)o1)N1CCN(c2ccccn2)CC1 | -0.169
Clc1ccc(-c2nnc3sc(Cc4cccs4)nn23)c(Cl)c1 | -0.542
Cc1cccc(C(CC(=O)N2CCCC2)c2ccccc2)c1O (centres undefined) | -0.619
CSc1ncc(Cl)c(C(=O)Nc2nnc(SC)s2)n1 | -0.194
COc1cc2c(cc1NC(=O)COC(=O)[C@@H](NC(=O)c1ccccc1F)C(C)C)oc1ccccc12 | -0.258
C/C(=N\NC(=O)c1c(Cl)c(C)nn1C)c1cccc(NC(=O)COc2ccc(Cl)cc2)c1 | -0.136
CC(=O)N(CC1CCCO1)c1nnc(-c2ccccn2)s1 (centres undefined) | -0.016
O=C1C2CC=CCC2C(=O)N1c1cccc(OS(=O)(=O)c2ccc3ccccc3c2)c1 (centres undefined) | 0.0335
Cc1ccc(-n2c(C)cc(C(=O)COC(=O)c3c(C)noc3C)c2C)cc1 | -1.59
CCCc1nc2sc3c(c2c(=O)n1NC(=O)CCCl)CCCC3 | -0.0232
Cc1nc(/C=[N+](\[O-])C(C)(C)/C=N/O)n(O)c1C | 0.192
CCN(c1ccccc1)S(=O)(=O)c1ccc2[nH]cc(C(=O)N3CCOCC3)c(=O)c2c1 | 0.567
CCCOn1c(OCC(C)C)nc2ccccc2c1=O | -0.497
O=C(Nc1cccc2c1[nH]c1ccccc12)C(F)(F)F | 0.34
COC(=O)C(C)n1cnc2c(nnn2Cc2ccc(Cl)cc2)c1=O (centres undefined) | -0.176
COc1ccc(C)cc1S(=O)(=O)N1CCC(C(=O)N2CCN(C)CC2)CC1 | -0.102
O=C(/C=C/c1ccccc1)N1CCN(c2ccc([N+](=O)[O-])c(N3CCOCC3)c2)CC1 | -0.431
COc1ccccc1NC(=O)CN(C)S(=O)(=O)c1ccc(F)cc1 | -0.0551

SMILES | z-score
CNC(=O)CN1C(=O)c2cccc3cccc1c23 | 0.394
COc1ccc(-c2cc(C(F)(F)F)nc(NC3CCCC3)n2)cc1OC | 0.0196
CCC1=Nc2ccccc2NC2=C1C(=O)CCC2 | 0.743
O=C(Cn1c(SCC(=O)N2CCc3ccccc3C2)nc2ccccc21)NC1CCCC1 | -0.106
O=C(NNS(=O)(=O)c1ccccc1)c1cc2cc3ccccc3nc2s1 | -0.185
Cn1c(=O)n(CC(=O)NCc2cccnc2)c2ccccc21 | 0.0198
Cc1ccc(C)c(NC(=O)CSc2ccc(-c3ccco3)nn2)c1 | -0.235
Cn1nc(-c2ccc(Cl)cc2)c2cc(C(=O)N3CCOCC3)sc21 | -0.302
O=C(CN1CCOCC1)c1c[nH]c2ccccc12 | -0.0856
Cc1ncc(S(=O)(=O)c2ccccc2)c(-c2ccc(Cl)cc2Cl)n1 | -0.306
CCOC(=O)C(Cc1cc(C(C)=O)ccc1OCC)C(=O)OCC | -0.173
COc1ccc(C(=O)c2c[nH]c(C(=O)NCC3CCCO3)c2)cc1 (centres undefined) | -0.0371
CCOc1ccccc1NC(=O)C(OC(=O)c1ccc(N(C)C)cc1)c1ccccc1 (centres undefined) | 0.159
COc1cccc(OC)c1OCc1cc(C2C3CCCC=C3C(C#N)=C(N)C2(C#N)C#N)c(C)cc1C (centres undefined) | 0.121
COc1ccc(-c2noc(CCC(=O)N3CCN(c4cccc(C(F)(F)F)c4)CC3)n2)cc1 | -0.0361
CCn1c(SC)nnc1-c1sc2cc(Cl)ccc2c1Cl | -2.4
NC(=O)C1(N2CCCCC2)CCN(C(=O)c2ccccc2)CC1 | 0.148
S=C(NCCc1ccccc1)Nc1ccccc1Cl | -0.00832
CCOC(=O)CNC=C(C(=O)OCC)C(=O)OCC | -0.0489
C=CCSc1nnc2c(n1)OC(c1c(C)[nH]n(-c3ccccc3)c1=O)Nc1ccccc1-2 (centres undefined) | -0.49
Clc1ccc(OCc2nc(-c3ccncc3)no2)cc1 | 0.0261
CC(C)C(CCN1C(=O)CCC1=O)C1CCOC(C)(C)C1 (centres undefined) | -0.19

SMILES | z-score
Clc1cccc2sc(N3CCN(c4ccccc4)CC3)nc12 | -0.224
CN(Cc1nc2ccccc2n1C)C(=O)c1cccs1 | 0.0325
CC1CCC(NC(=O)COc2ccccc2C(N)=O)CC1 (centres undefined) | 0.317
CC(C)CC(NC(=O)C1CCC(C)CC1)C(=O)Nc1ccc2c(c1)OCCO2 (centres undefined) | 0.364
CN1CCC(Oc2ccccc2Sc2ccccc2)CC1 | 0.275
Cc1ccc(S(=O)(=O)Oc2ccc(/C=C3/N=C(c4ccccc4)OC3=O)cc2)cc1 | -0.166
C/C(=N\Nc1nc(-c2cc(C)ccc2C)cs1)c1cc2ccccc2oc1=O | -0.206
CCc1ccc(C2C(C(C)=O)=C(C(=O)OC)Nc3nnnn32)cc1 (centres undefined) | -0.322
COc1cc(C(=S)N2CCC(C(N)=O)CC2)ccc1O | -0.479
O=C(Nc1ccccc1Cl)O/N=C/c1ccncc1 | -0.187
CCOc1ccccc1OCCCOc1ccc([N+](=O)[O-])cc1Cl | -0.175
Cc1ccc(S(=O)(=O)Nc2ccc3c(c2)c2c(n3S(=O)(=O)c3ccc(C)cc3)CCCC2=O)cc1 | -0.226
Cc1ccc(Nc2nc(N)nc(CSc3nnc(-c4ccncc4)o3)n2)cc1 | -0.482
CC(OC(=O)CCc1nc2ccccc2c(=O)[nH]1)C(=O)c1ccc(C(C)(C)C)cc1 (centres undefined) | -0.185
Cc1nn(-c2ccccc2)c(Cl)c1C(=O)NCC(C)C | 0.105
Cc1cccc(C)c1NC(=O)c1cc2c(=O)c3ccccc3oc2nc1C(F)(F)F | -0.121
CCc1ccc(C(=O)/C=C/c2cnn(C)c2C)s1 | -0.153
CC1=C(C(=O)OC(C)C)C(c2ccc(N(C)C)cc2)C2=C(CC(C)(C)CC2=O)N1 (centres undefined) | 0.452
Cc1ccc(S(=O)(=O)NCC(=O)Nc2ccc(C(F)(F)F)cc2)cc1 | 0.0489
O=C1c2ccccc2C(=O)N1CCCCN(C(=O)c1ccc([N+](=O)[O-])cc1)c1ccc(Cl)cc1 | 0.047
CN1C(=S)SC(N(O)C(=O)Nc2cccc3ccccc23)C1(C)C (centres undefined) | 0.396
COC(=O)Cn1c(=NC(=O)C2CC2)sc2c(C)cc(C)cc21 | -0.21

SMILES | z-score
CC(C)N(c1nnc(N)s1)C(C)C | -0.986
Cc1ccc(S(=O)(=O)NC(=O)Nc2ncc3c(n2)CC(c2ccco2)CC3=O)cc1 (centres undefined) | 0.0669
CN(C)c1ccc(/C=N/N=C/c2ccccc2O)cc1 | -0.118
O=C(NCc1ccco1)c1c[nH]c2ccc(S(=O)(=O)N3CCOCC3)cc2c1=O | -0.94
Cc1ccc(S(=O)(=O)NNc2ccccc2)cc1 | -0.271
COC(=O)c1c(C)[nH]c(C(=O)CSc2ncnc3sc(-c4ccccc4)cc23)c1C | 1.11
Cc1cc(N(C)Cc2ccccc2)nc(-c2ccccc2)n1 | -0.288
CNc1ccc(/C=C/C(=O)c2ccc(C)cc2)cc1[N+](=O)[O-] | 0.0245
COc1ccccc1N(C(C)=O)C1SC(=O)N(c2ccccc2)C1=O (centres undefined) | -0.264
COc1ccc(OC)c(NC(=O)CC2C(=O)NCCN2C(=O)Nc2cccc(Cl)c2)c1 (centres undefined) | 0.138
O=C(Nc1cccc(N=Cc2cc(Cl)cc(Br)c2O)c1)c1ccco1 | -1.44
Cc1ccc(N(C(=O)Cn2nnc3ccccc32)C(C(=O)NCc2ccccc2)c2ccccn2)cc1 (centres undefined) | 0.187
COc1ccc(/C=C/C(=O)Oc2ccc(/C=N\NC(=O)c3ccc(F)cc3)cc2)cc1 | 0.18
COc1ccc(CCN(C(=O)COc2ccccc2)c2nc(-c3ccccc3)cs2)cc1OC | 0.108
C/C(=N/NC(=O)Cn1nc2ccccc2n1)c1ccc(F)cc1 | 0.698
Cc1cccc(CSc2nc3c(c(-c4cccs4)c2C#N)CN(C)CC3)c1 | -0.141
CC(C)c1nc(SCC(=O)N2c3ccccc3CC2C)c2ccccc2n1 (centres undefined) | -0.621
Cc1ccc(NC(=O)c2cccs2)cc1NC(=O)c1ccco1 | 0.722
CCOC(=O)C1CCN(C(=O)c2n[nH]c(=O)c3ccccc23)CC1 | -0.224
Cc1cc(Nc2ccccc2)n(CCC#N)n1 | 0.151
COc1ccc(CCNC(=S)Nc2ccc(OC)cc2)cc1 | -0.23
